These results are taken from PMC7562919.

Chains of the proteins cited; added tags and fusions are not shown.
UniProt Q39255: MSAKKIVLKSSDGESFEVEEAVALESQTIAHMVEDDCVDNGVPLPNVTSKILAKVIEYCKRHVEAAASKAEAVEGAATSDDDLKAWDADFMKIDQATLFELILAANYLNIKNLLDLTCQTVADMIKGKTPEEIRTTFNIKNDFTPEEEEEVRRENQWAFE

For assay [1], the target named is T1, SUSA2-FLAG (Arabidopsis thaliana) (UniProt Q9FKT0).
T1 sequence: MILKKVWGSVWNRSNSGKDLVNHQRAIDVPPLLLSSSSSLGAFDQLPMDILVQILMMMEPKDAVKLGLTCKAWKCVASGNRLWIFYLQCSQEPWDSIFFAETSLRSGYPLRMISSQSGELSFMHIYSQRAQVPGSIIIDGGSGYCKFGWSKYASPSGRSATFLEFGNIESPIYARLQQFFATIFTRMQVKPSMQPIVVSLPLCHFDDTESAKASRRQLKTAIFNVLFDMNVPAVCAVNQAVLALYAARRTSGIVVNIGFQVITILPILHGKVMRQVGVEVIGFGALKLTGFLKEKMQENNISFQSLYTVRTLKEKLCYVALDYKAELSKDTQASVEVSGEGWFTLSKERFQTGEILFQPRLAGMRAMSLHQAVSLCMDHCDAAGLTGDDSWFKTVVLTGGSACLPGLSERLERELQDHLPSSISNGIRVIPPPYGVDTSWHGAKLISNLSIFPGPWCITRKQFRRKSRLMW
Briefly: co-IP; Arabidopsis stable transgenic lines carrying both transgenes; for CHS1-HA and TN2-HA in Col-0, hsp90.3-1 and sgt1b backgrounds.

Assay [2] concerns the target T2, SUSA2-NLuc (Arabidopsis thaliana) (UniProt Q9FKT0).
T2 sequence: T1 sequence
The assay can be described thus: split reporter; split-luciferase; CLuc and NLuc fusions co-infiltrated into N. benthamiana leaves at OD600 = 0.2, luciferin infiltrated after 48 h.

Assay [3] deals with T3, DN-SUSA2-NLuc (Arabidopsis thaliana) (UniProt Q9FKT0).
T3 sequence: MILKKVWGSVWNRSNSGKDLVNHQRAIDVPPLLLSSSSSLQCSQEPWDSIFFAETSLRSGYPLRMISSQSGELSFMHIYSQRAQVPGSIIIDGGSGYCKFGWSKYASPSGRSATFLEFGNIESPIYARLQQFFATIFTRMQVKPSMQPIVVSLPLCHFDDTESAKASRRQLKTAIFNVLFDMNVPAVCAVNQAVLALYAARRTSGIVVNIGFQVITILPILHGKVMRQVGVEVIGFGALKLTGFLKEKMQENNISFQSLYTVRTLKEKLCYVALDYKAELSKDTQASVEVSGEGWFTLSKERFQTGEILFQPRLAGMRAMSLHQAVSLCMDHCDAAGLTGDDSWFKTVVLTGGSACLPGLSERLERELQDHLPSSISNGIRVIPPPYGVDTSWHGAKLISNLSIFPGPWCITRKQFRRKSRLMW
The description is as above.

Assay [4] deals with T4, SAUL1-C29A-FLAG (Arabidopsis thaliana) (UniProt Q9LM76).
T4 sequence: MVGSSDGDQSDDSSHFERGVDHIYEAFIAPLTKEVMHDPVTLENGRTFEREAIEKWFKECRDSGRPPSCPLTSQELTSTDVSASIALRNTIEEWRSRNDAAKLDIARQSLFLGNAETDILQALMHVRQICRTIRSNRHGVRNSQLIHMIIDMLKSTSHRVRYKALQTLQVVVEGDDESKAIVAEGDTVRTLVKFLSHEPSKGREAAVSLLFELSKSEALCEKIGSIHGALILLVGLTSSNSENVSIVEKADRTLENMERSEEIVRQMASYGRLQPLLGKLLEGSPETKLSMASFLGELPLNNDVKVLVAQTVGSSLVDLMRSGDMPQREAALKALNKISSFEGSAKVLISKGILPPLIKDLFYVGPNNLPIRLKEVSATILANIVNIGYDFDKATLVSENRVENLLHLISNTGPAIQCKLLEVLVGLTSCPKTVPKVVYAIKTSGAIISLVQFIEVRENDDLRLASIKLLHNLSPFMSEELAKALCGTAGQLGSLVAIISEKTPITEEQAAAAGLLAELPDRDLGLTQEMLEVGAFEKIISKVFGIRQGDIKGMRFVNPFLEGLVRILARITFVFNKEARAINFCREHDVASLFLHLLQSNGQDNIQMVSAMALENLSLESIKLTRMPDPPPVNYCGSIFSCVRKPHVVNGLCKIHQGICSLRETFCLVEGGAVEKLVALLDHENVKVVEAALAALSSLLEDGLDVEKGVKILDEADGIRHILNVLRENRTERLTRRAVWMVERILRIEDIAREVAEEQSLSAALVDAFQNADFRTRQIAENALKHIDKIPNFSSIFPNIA
Briefly: co-IP; proteins transiently co-expressed in N. benthamiana leaves, harvested after 48 h; GTEN buffer (25 mM Tris-HCl pH 7.5, 150 mM NaCl, 1 mM EDTA, 0.15% NP-40, 10 mM DTT); FLAG-tagged protein precipitated with anti-FLAG M2 beads, 3 h at 4 °C; western blot. In general terms: Immunoblotting shows a protein as a band on a membrane.

The target in assay [5] is T5, DN-SUSA2-FLAG (Arabidopsis thaliana) (UniProt Q9FKT0).
T5 sequence: T3 sequence
The description is as above.

Assay [6] concerns the target T1, SUSA2-FLAG (Arabidopsis thaliana). The assay can be described thus: co-IP; Arabidopsis stable transgenic lines carrying both transgenes; for CHS1-HA and TN2-HA in Col-0, hsp90.3-1 and sgt1b backgrounds. The source holds these as a separate data set.

Residue numbers refer to the chain shown, from its start. Read-outs that look alike come from different tables or passages of the source. Results are given in words; binding and its absence hold for the method and conditions named. Binding seen in cells or lysates may run through a third protein. Some binding calls cover weakened binding; strength is not graded here. Where a sequence is shown, tags or fusion partners need not be part of it.

As for ASK1-HA (from UniProt Q39255 1-160), the binding entry in assay [1] is reported as “binds”.

As to ASK1-CLuc (from UniProt Q39255 1-160), in assay [2], the binding entry is “binds”.

B1: SGT1b-CLuc (protein, UniProt Q9SUT5 1-358)
chain: MAKELAEKAKEAFLDDDFDVAVDLYSKAIDLDPNCAAFFADRAQANIKIDNFTEAVVDANKAIELEPTLAKAYLRKGTACMKLEEYSTAKAALEKGASVAPNEPKFKKMIDECDLRIAEEEKDLVQPMPPSLPSSSTTPLATEADAPPVPIPAAPAKPMFRHEFYQKPEEAVVTIFAKKVPKENVTVEFGEQILSVVIDVAGEEAYHLQPRLFGKIIPEKCRFEVLSTKVEIRLAKAEIITWASLEYGKGQSVLPKPNVSSALSQRPVYPSSKPAKDWDKLEAEVKKQEKDEKLDGDAAMNKFFSDIYSSADEDMRRAMNKSFAESNGTVLSTNWKEVGTKKVESTPPDGMELKKWEY
As to B1, the binding result in assay [3] was “binds weakly”.

B2: SUSA2-HA (protein, UniProt Q9FKT0 1-471)
chain: T1 sequence
As for B2, the binding result in assay [4] is given as “no binding”.

B3: CHS1-HA (protein, UniProt F4I902 1-420)
chain: MSTSYSFLLAGRELDVFLSFSGKIALDVDFGYDLSRNGIKAFKSESWKESSFKPIDLRTLEALTESKVAVVMTSDEEVSSVGFLEELIVIIEFQEKRSLTVIPVFLTKHPLDVEKVSQIFPERAKIWRTAIAKLDNIAAQYSFSRNLAVMHGTHRIKQIADDIRLMFLSSASSDFKGLAGMDRHMKALYALLALESDEKVRTIGIWGSSGVGKTTLARYTYAEISVKFQAHVFLENVENMKEMLLPSENFEGEDLRSVNHEMNEMAEAKQKHRKVLLIADGVNNIEQGKWIAENANWFAPGSRVILITQEKSLLVQSGVNHVYEVGSLRYDEALQLFSRFAFKQPYPSPDFERLSVRAVQLAGFLPVTIRLFGSFLTGRDKEEWEATLLKLNAKQGKDIKEVWKIMEALEDKDIVEASQR
For the molecule B3, in assay [5], the binding result is recorded as “binds”.

B4: CHS1-Turbo-HA (protein, UniProt F4I902 1-420)
chain: B3 chain
Take B4: the binding result in assay [5] was “binds”.

B5: CHS1-HA (Arabidopsis stable transgenic lines) (protein, UniProt F4I902 1-420)
chain: B3 chain
As for B5, in assay [6], the binding entry was “binds”.

B6: HA-SAUL1 (protein, UniProt Q9LM76 1-801)
chain: T4 sequence with A29C
As for B6, in assay [5], the binding result is “no binding”.
